PubChem BioAssay AID504832 (National Center for Advancing Translational Sciences (NCATS), 2011)
The campaign covered roughly 310,000 compounds. About 18,000 (5.8%) were called active. Inconclusive results, whose numbers are uncertain, are shown with a selection of clear calls. The call rests on the fitted dose curve; in most records, active means well fitted inhibition curve with a large enough effect; inconclusive means small, poorly fitted or top-dose-only effect, or another doubt; inactive means no such curve, though single readings can be large or run the other way. Potencies of inconclusive entries are left out as doubtful fits.
Potency means the concentration at half of the fitted maximal effect; tags describe the fitted curve by direction and shape.

Assay: Primary qHTS for delayed death inhibitors of the malarial parasite plastid, 48 hour incubation
Details: P. falciparum luciferase growth in erythrocytes; series mostly up to 28.7 µM
Outline: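 First compound was added to culture medium, then infected red cells at 0.1% parasitemia and 2% hematocrit (final). After incubation at 37 C under 5% CO2, luciferase detection reagent was dispensed and light output recorded.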
For `COc1ccccc1CCN1C(=S)NC(C)(C)CC1(C)O` (configuration not stated), the Potency was inconclusive [inhibitor, single point].
For `O=C(Nc1nc(-c2cccs2)cs1)c1ccc(S(=O)(=O)N2CCCCC2)cc1`, the Potency was inconclusive [inhibitor, single point].
In the case of `CCc1nn(C(CC)C(=O)NCCc2ccc(OC)cc2OC)c(=O)c2cc3occc3n12` (configuration not stated), the Potency was “inactive”.
With `CC12CC3CC(C)(C1)CC(Nc1nc(N4CCOCC4)nc4ccccc14)(C3)C2` the Potency was active: 1.65 µM.
For `Cc1cccc(OP(=O)(Oc2ccccc2)OC(c2ccccc2)C(F)(F)F)c1` (configuration not stated), the Potency was inconclusive [inhibitor, single point].
In the case of `O=S(=O)(NC1CCCCC1N1CCCCC1)c1ccccc1` (configuration not stated), the Potency was “inactive”.
For `Cc1ccc(Cn2nnnc2CN2CCC(NC(=O)c3ccccc3F)CC2)cc1`, the Potency was inconclusive [inhibitor, full curve, poor fit].
In the case of `CN(C)Cc1c(C(=O)Nc2ccccc2)[nH]c2ccccc12`, the Potency was active: 2.94 µM.
In the case of `COc1ccc(NC(=O)Nc2ccc(F)c(F)c2)c(OC)c1`, the Potency was inconclusive [inhibitor, partial curve, poor fit].
In the case of `COc1cccc(CNC(=O)C23CN(Cc4ccccc4)CC2C(c2ccc([N+](=O)[O-])cc2)=NO3)c1` (configuration not stated), the Potency was inconclusive [inhibitor, full curve].
In the case of `Cc1cccc2cc(CN(C(=S)NCC(C)C)C3CCCC3)c(=O)[nH]c12`, the Potency was inconclusive [inhibitor, single point].
In the case of `CCOC(=O)c1c(C)[nH]c(C(=O)OCC(=O)N(CC(C)C)C2CCS(=O)(=O)C2)c1C` (configuration not stated), the Potency was inconclusive [inhibitor, single point].
With `CC(=N/O)/C(C)=N\NC(=O)c1ccccn1` the Potency was inconclusive [inhibitor, partial curve, poor fit].
In the case of `O=c1nc2ccccn2c2ccc(S(=O)(=O)N3CCCCC3)cc12`, the Potency was active: 5.86 µM.
For `CCOC(=O)c1ccc(NC(=O)c2cn(-c3ccccc3)nc2-c2ccncc2)cc1`, the Potency was active: 4.15 µM.
For `O=C(O)c1ccc(N/N=C/c2ccc(-c3ccccc3Cl)o2)cc1`, the Potency was “inactive”.
For `COc1ccc(-c2c(C#Cc3ccsc3)c3cc(-c4ccc(OC)c(F)c4)ccc3n2C)cc1`, the Potency was “inactive”.
In the case of `O=c1sc(/C=N/Nc2ccccc2)c(Cl)n1Cc1ccccc1`, the Potency was inconclusive [inhibitor, single point].
For `COc1ccc(N=C2SC(CC(=O)Nc3ccccc3)C(=O)N2Cc2ccco2)cc1` (configuration not stated), the Potency was inconclusive [inhibitor, single point].
For `CCOc1ccc(C(C(=O)NC2CCCC2)N(Cc2ccccc2)C(=O)c2nsc(Cl)c2Cl)cc1` (configuration not stated), the Potency was active: 13.1 µM.
With `COc1ccc(-c2cc(C(=O)Nc3ccc(Cl)cc3Cl)c3ccccc3n2)cc1OC` the Potency was inconclusive [inhibitor, full curve, poor fit].
For `Cc1ccccc1C(=O)NC(CC(C)C)C(=O)OCC(=O)c1c(N)n(C)c(=O)n(C)c1=O` (configuration not stated), the Potency was active: 1.04 µM.
In the case of `Clc1cccc(-c2nc(NCC3CCCO3)c3ccccc3n2)c1` (configuration not stated), the Potency was inconclusive [inhibitor, single point].
For `CCOC(=O)C1=C(C)N=c2s/c(=C\c3ccc(OC(C)=O)c(OCC)c3)c(=O)n2C1/C=C/c1ccccc1` (configuration not stated), the Potency was active: 10.4 µM.
With `COC(=O)c1ccc(/C=C/c2c(-c3ccsc3)oc3ccc(N4CCOCC4)cc23)cc1` the Potency was inconclusive [inhibitor, single point].
For `CCOC(=O)C1C(c2cc(OC)c(O)c(OC)c2)NC(=S)NC1(O)C(F)(F)F` (configuration not stated), the Potency was “inactive”.
In the case of `Cc1ccc(SCC(=O)Nc2cccc(C(=O)NC(C)(C)C)c2)cc1`, the Potency was “inactive”.
In the case of `O=C(CCCN1C(=O)/C(=C/c2ccccc2Cl)SC1=S)N1CCOCC1`, the Potency was inconclusive [inhibitor, partial curve, poor fit].
With `COC(=O)N1C(=O)[C@@](Cc2ccccc2)(c2ccccc2)N1C(=O)OC` the Potency was “inactive”.
With `COc1ccccc1OCC(=O)Nc1ccc2c(c1)OCCO2` the Potency was “inactive”.
For `COc1ccc(N(CC(=O)N/N=C/c2ccc(OC)c(OC)c2)S(=O)(=O)c2ccccc2)cc1`, the Potency was inconclusive [inhibitor, single point].
In the case of `CC(C)C(NC(=S)NCc1ccccc1)C(=O)O` (configuration not stated), the Potency was “inactive”.
With `CC1CC2=C(NC(=S)NC2c2ccccc2F)/C(=C/c2ccccc2F)C1` (configuration not stated) the Potency was inconclusive [inhibitor, partial curve, poor fit].
With `Cc1ccc(S(=O)(=O)NC(=O)c2cccn2C)cc1` the Potency was “inactive”.
In the case of `CCO[C@@H]1OC(C(=O)O)=C[C@H](c2ccc3c(c2)OCO3)[C@H]1CCCO`, the Potency was “inactive”.
In the case of `Clc1ccccc1Cn1nnc2c(N3CCCC3)ncnc21`, the Potency was inconclusive [inhibitor, full curve, poor fit].
For `COc1ccc(NC(=O)N2CCOCC2)cc1`, the Potency was “inactive”.
In the case of `CC1CC(=O)N(c2ccc(NCCc3ccc(O)cc3)c([N+](=O)[O-])c2)C1=O` (configuration not stated), the Potency was inconclusive [inhibitor, partial curve, poor fit].
With `COc1cc([N+](=O)[O-])ccc1NC(=O)CN1CCc2cc(OC)c(OC)cc2C1` the Potency was inconclusive [inhibitor, single point].
In the case of `Cc1ccc(OCc2nnc(SCC(=O)c3ccccc3)n2-c2ccccc2)cc1`, the Potency was active: 13.1 µM.
For `CC(=O)Nc1nc(CCl)cs1`, the Potency was “inactive”.
With `CCOC(=O)Cc1csc(NC(=O)c2ccc3ncsc3c2)n1` the Potency was “inactive”.
In the case of `COc1cc2[nH]c(=S)nc(NCc3ccc(C)cc3)c2cc1OC`, the Potency was inconclusive [inhibitor, partial curve].
With `N[C@@H](Cc1ccccc1)C(=O)N1CCOCC1` the Potency was “inactive”.
With `c1ccc2nc(OCCN3CC3)ccc2c1` the Potency was inconclusive [inhibitor, single point].
In the case of `CCN(C(=O)CCCC(=O)N(CC)c1ccccc1)c1ccccc1`, the Potency was “inactive”.
With `O=C(c1ccccc1Br)N1CCN(Cc2ccc3c(c2)OCO3)CC1` the Potency was “inactive”.
For `CCN(CC)CCn1c2c(c(SCC(=O)Nc3nc4ccccc4s3)nc1=O)CCC2`, the Potency was inconclusive [inhibitor, full curve].
With `CC1CC(C)CN(C(=O)COC(=O)C2CCN(S(=O)(=O)c3c(Cl)cccc3Cl)CC2)C1` (configuration not stated) the Potency was inconclusive [inhibitor, single point].
In the case of `O=C(CSc1nnc2ncccn12)Nc1cccc2ccccc12`, the Potency was “inactive”.
With `CCc1ccc(C(=O)NNc2cc(Cl)ccc2Cl)cc1` the Potency was inconclusive [inhibitor, single point].
For `CCOC(=O)C1=C(C)N(C)C(C)=C(C(=O)OCC)C1c1ccsc1`, the Potency was inconclusive [inhibitor, partial curve].
With `COC(=O)/C(=C\c1c[nH]c2ccccc12)NC(C)=O` the Potency was inconclusive [inhibitor, full curve].
In the case of `CSCCC(NC(=O)c1ccc(Cl)cc1Cl)C(=O)N1CCCCCCC1` (configuration not stated), the Potency was inconclusive [inhibitor, single point].
In the case of `CC(Sc1ccc(Cl)cc1)C(=O)NNC(=O)c1ccccc1O` (configuration not stated), the Potency was inconclusive [inhibitor, single point].
For `O=C(N/N=C/C=C/c1ccccc1)c1cccc(Br)c1`, the Potency was “inactive”.
In the case of `Cc1ccc(OCCCCn2ccnc2C)c(C)c1`, the Potency was inconclusive [inhibitor, single point].
In the case of `Cc1ccc(C)c(SCC(=O)NCc2ccco2)c1`, the Potency was inconclusive [inhibitor, partial curve].
With `Cc1ccc(S(=O)(=O)N(CC(=O)Nc2cccc([N+](=O)[O-])c2)Cc2ccc(Cl)cc2)cc1` the Potency was inconclusive [inhibitor, partial curve, poor fit].
For `Cc1ccc(C(=O)N/C(=C/c2ccc(Cl)cc2)C(=O)N2CCOCC2)cc1`, the Potency was inconclusive [inhibitor, full curve, poor fit].
For `O=C(c1ccco1)[C@@H]1[C@@H]2C(=O)N(c3ccc(F)cc3)C(=O)[C@@H]2[C@H]2C=Cc3ccccc3N21`, the Potency was inconclusive [inhibitor, single point].
With `CC(C)N(N=Nc1ccc([N+](=O)[O-])cc1)C(C)C` the Potency was inconclusive [inhibitor, partial curve].
For `CC1CN2C(c3ccc([N+](=O)[O-])cc3)=CSC2=N1` (configuration not stated), the Potency was “inactive”.
In the case of `OC(CN1CCCCC1)Cn1c2ccc(Cl)cc2c2cc(Cl)ccc21` (configuration not stated), the Potency was active: 1.85 µM.
For `O=C(C1CCCCC1)N1CC(=O)N2CCc3ccccc3C2C1` (configuration not stated), the Potency was “inactive”.
In the case of `NC(=O)C1CCN(C2=C(NS(=O)(=O)c3ccc(Br)cc3)C(=O)c3ccccc3C2=O)CC1`, the Potency was inconclusive [inhibitor, full curve].
In the case of `COc1ccc(/C(N)=N/OC(=O)c2ccc3c(c2)OCO3)cc1`, the Potency was inconclusive [inhibitor, single point].
With `CCCCN(C(=O)CSCc1c(C)noc1C)c1c(N)n(CCCC)c(=O)[nH]c1=O` the Potency was inconclusive [inhibitor, single point].
With `O=C(C1CCCN(c2ncnc3c2nc2n3CCCCC2)C1)N1CCN(c2cccc(Cl)c2)CC1` (configuration not stated) the Potency was active: 13.1 µM.
With `COc1ccc2cc(C(N)=O)c(=Nc3ccc(C)cc3)oc2c1` the Potency was inconclusive [inhibitor, full curve, poor fit].
With `CCC(C)c1ccc(OCCn2ccnc2)cc1` (configuration not stated) the Potency was inconclusive [inhibitor, single point].
In the case of `Cc1ccc(NC(=O)c2ccc(NCCN)c([N+](=O)[O-])c2)cc1Cl`, the Potency was active: 4.15 µM.
